In PubChem BioAssay AID624296 (National Center for Advancing Translational Sciences (NCATS), 2012):
The campaign covered roughly 350,000 compounds. About 9,900 (2.8%) were called active. The shares of active, inactive and inconclusive entries below differ from those in the screen. Calls follow the shape of the dose curve; as a rule, active = well fitted activation curve with a large enough effect; inconclusive = small, poorly fitted or top-dose-only effect; inactive = no such curve, though single readings can be large or run the other way. Potencies of inconclusive entries are left out as doubtful fits.

Test: A quantitative high throughput screen for small molecules that induce DNA re-replication in MCF 10a normal breast cells. Also: nearly all actives have a fitted effect of over 50% in size. As to activity, positive = re-replication: % of control where 0% means no effect.
Conditions: MCF 10A DNA re-replication, Hoechst nuclear intensity, 48 h; activity, positive = re-replication: at 46.1 µM (top of the series)
Potency is read from the fitted curve at half-maximal effect; tags tell the direction and shape of the fitted curve.

Row | SMILES | Potency | activity, positive = re-replication
1 | CC(NC(=O)C1CCCN1S(=O)(=O)c1ccccc1)c1ccccc1 (stereo not given) | inconclusive [activator, partial curve, poor fit] | –
2 | COc1cc(/C=C2/SC(=O)N(Cc3ccccc3Cl)C2=O)ccc1OCc1ccncc1 | inconclusive [activator, full curve] | –
3 | CCn1cc(C(=O)NCc2ccco2)c(=O)c2cc(S(=O)(=O)N3CCCCCC3)ccc21 | inconclusive [activator, partial curve, poor fit] | –
4 | COc1ccc2c(c1)CCN=C2Cc1ccc(OC)c(OC)c1 | – | inactive: 17.5%
5 | Cc1csc(NC(=O)c2ccccc2[N+](=O)[O-])n1 | – | inactive: -3.24%
6 | COc1cc(NC(=O)c2cc(C)on2)cc(C(=O)Nc2cccc(C(F)(F)F)c2)c1 | inconclusive [activator, single point] | –
7 | Cc1ccc(C)c(N2CCN(C(=O)CCNS(=O)(=O)c3ccc4c(c3)oc(=O)n4C)CC2)c1 | – | inactive: -1.78%
8 | O=C(CSc1nc2ccccc2[nH]1)N1c2ccccc2Sc2ccccc21 | – | inactive: -1.99%
9 | COc1ccc2nc(SCC(=O)NCC3CCCO3)c(C#N)cc2c1 (stereo not given) | active: 23.1 µM | –
10 | O=C(Nc1nnc(-c2ccco2)o1)c1ccc(Cl)cc1 | inconclusive [activator, partial curve, poor fit] | –
11 | O=C(Oc1ccc(N(Cc2cccs2)C2=NS(=O)(=O)c3ccccc32)cc1)c1ccc(Cl)cc1 | – | inactive: -5.19%
12 | O=C(c1cc([N+](=O)[O-])cc([N+](=O)[O-])c1)N(Cc1nnc(-c2ccccc2Cl)o1)C1CC1 | inconclusive [activator, single point] | –
13 | CC1CN(S(=O)(=O)c2cc(C(=O)N3CCCCC3C)ccc2Cl)CC(C)O1 (stereo not given) | inconclusive [activator, single point] | –
14 | CCOc1ccc2cc(C(=O)NCc3ccccc3)c(=N)oc2c1 | inconclusive [activator, single point] | –
15 | O=C(NNc1ccccc1)C(=O)NNS(=O)(=O)c1ccc([N+](=O)[O-])cc1 | – | inactive: -3.55%
16 | COC(=O)C1C(=O)c2c([nH]c(C(=O)OCC3CCCO3)c2C)CC1C (stereo not given) | – | inactive: 6.06%
17 | CCCCn1c(N)c(N(CC(C)C)C(=O)c2cc(-c3ccncc3)nc3ccccc23)c(=O)[nH]c1=O | inconclusive [activator, partial curve, poor fit] | –
18 | CN1CCC(N(C)C(=S)NC(=O)C23CC4CC(CC(C4)C2)C3)CC1 | inconclusive [activator, partial curve, poor fit] | –
19 | Cc1ccc(-c2nnn(CC(=O)NCCC3=CCCCC3)n2)cc1 | inconclusive [activator, partial curve, poor fit] | –
20 | C#CCOCCOCCOCCNc1nc(N2CCOCC2)nc(N2CCN(C(=O)CCCCCCCCCCNC(=O)[C@@H]([C@H](C)CC)n3cc(CCCCCN)nn3)CC2)n1 | active: 11.6 µM | –
21 | c1ccc(-c2noc(CN3CCN(C(c4ccccc4)c4ccccc4)CC3)n2)cc1 | inconclusive [activator, full curve, poor fit] | –
22 | COc1ccccc1C=NC(CO)C(O)c1ccc([N+](=O)[O-])cc1 (stereo not given) | – | inactive: -3.12%
23 | COC(=O)[C@@]12CCCCN1[C@H](c1ccc(-c3ccc(C(C)=O)cc3)c(OC)c1)[C@@H]1C(=O)N(C)C(=O)[C@@H]12 | – | inactive: 12.5%
24 | COc1ccc(OCc2cc(C(=O)NCC3CCOCC3)no2)c(Cl)c1 | – | inactive: 1.87%

Row | SMILES | Potency | activity, positive = re-replication
25 | COCCOC(=O)C1=C(C)N(Cc2ccccc2)C(=O)NC1c1ccc(OC)cc1 (stereo not given) | inconclusive [activator, full curve, poor fit] | –
26 | COc1cccc2cc(C(=O)N3CCCc4ccccc43)oc12 | inconclusive [activator, partial curve, poor fit] | –
27 | CCOC(=O)c1oc2nc3c(cc2c1N)CCCC3 | inconclusive [activator, partial curve, poor fit] | –
28 | CC(=O)Nc1ccc(-n2c(=O)c3ccccc3c3ccccc3c2=O)cc1 | inconclusive [activator, single point] | –
29 | CN(CCO)C(=O)c1ccc(-c2nn(C)c(=O)c3ccccc23)cc1 | – | inactive: -0.284%
30 | COc1ccc(/C=C/c2cc(=O)c3cc(Cl)ccc3o2)cc1 | active: 20.6 µM | –
31 | O=C(C=Cc1ccccc1)Nc1ccccc1 | – | inactive: 1.92%
32 | O=C1CNC(=O)/C1=C\N1CCCCC1 | inconclusive [activator, single point] | –
33 | Cc1ccc(S(=O)(=O)N2CCCC2c2nc3ccccc3s2)cc1 (stereo not given) | – | inactive: 14.8%
34 | CCCCN=Cc1c(C)[nH]n(-c2ccccc2)c1=S | – | inactive: -2.54%
35 | CCOc1c(S(=O)(=O)NC2CC(C)(C)NC(C)(C)C2)ccc(Cl)c1Cl | inconclusive [activator, single point] | –
36 | CC(C)c1ccc2c(c1)[C@H]1OCC[C@H]1[C@@H](c1cccs1)N2 | active: 7.31 µM | –
37 | C[C@H](CO)N1C[C@H](C)[C@@H](CN(C)CC2CCCCC2)Oc2c(NC(=O)C3CC3)cccc2C1=O | inconclusive [activator, single point] | –
38 | CC(=O)Oc1ccc(C(=O)Nc2ccc3c(c2)OCCO3)cc1 | inconclusive [activator, single point] | –
39 | COc1cccc(-c2nn(C)c3sc(C(=O)NCc4ccc(C)o4)cc23)c1 | inconclusive [activator, single point] | –
40 | Cc1cc2nc(=O)c(/C=C3\C=Nc4ccccc43)c(N)n2o1 | inconclusive [activator, single point] | –
41 | COc1ccc(Oc2c(Cl)cnn(-c3ccc(C)cc3)c2=O)cc1 | inconclusive [activator, single point] | –
42 | CC(C)c1c(O)c2c(n(-c3ccccc3)c1=O)CCCC2 | inconclusive [activator, partial curve, poor fit] | –
43 | Cc1ccc(C(C)C)c(OCc2ccc(C(=O)N/N=C/c3ccc(O)c(O)c3)cc2)c1 | inconclusive [activator, partial curve] | –
44 | CC(=O)c1ccc(NC(=O)c2cc(S(=O)(=O)N3CCOCC3)ccc2C)cc1 | inconclusive [activator, single point] | –
45 | O=C(CCN1CCCCC1)Nc1ccccc1 | – | inactive: -3.11%
46 | Cc1ccc(-c2nnn(CC(=O)N(CC(=O)NCC3CCCO3)c3ccc(F)c(Cl)c3)n2)o1 (stereo not given) | – | inactive: -2.81%
47 | Oc1ccc2ccccc2c1CNc1ccc(Br)cc1 | inconclusive [activator, single point] | –
48 | CCC1CCCCN1CCN1C(=O)C2C(C(=O)Nc3ccc(OC)cc3)C3C=CC2(O3)C1C(=O)NC1CCCCC1 (stereo not given) | active: 9.2 µM | –

Row | SMILES | Potency | activity, positive = re-replication
49 | CCc1nnc(NC(=O)/C=C/c2ccc(C)o2)s1 | inconclusive [activator, single point] | –
50 | CC(Oc1ccc(-c2ccccc2)cc1)C(=O)N/N=C/c1cccnc1 (stereo not given) | – | inactive: 8.87%
51 | CC(C)Nc1ccc(Nc2ccnc3cc4ccccc4cc23)cc1 | inconclusive [activator, single point] | –
52 | CCc1nnc(NC(=O)CSc2nnc(-c3ccccc3NC(=O)c3ccccc3)o2)s1 | inconclusive [activator, partial curve] | –
53 | C=CC(=O)N1C/C(=C/c2ccc(Cl)cc2)C(=O)/C(=C\c2ccc(Cl)cc2)C1 | inconclusive [activator, full curve, poor fit] | –
54 | COc1cc(/C=C/C(=O)OCC(=O)Nc2ccc(C)c(S(=O)(=O)N3CCCCC3)c2)ccc1O | inconclusive [activator, partial curve, poor fit] | –
55 | C[C@H]1CN=C(N(C)C)N1CC1CCC(C(C)(C)C)CC1 (stereo not given in full) | inconclusive [activator, partial curve, poor fit] | –
56 | O=C(Nc1nc(-c2ccc3c(c2)OCO3)cs1)C1CC1 | – | inactive: 1.8%
57 | Cc1cc(C)c2c(c1)cc(C)c1nnc(SCC(=O)Nc3ccccc3N3CCOCC3)n12 | – | inactive: -5.37%
58 | O=C(CSc1nnc(NC(=O)c2c(F)cccc2F)s1)NC1CC1 | – | inactive: -7.23%
59 | Cc1ccc(CN(CC(=O)NC2CCCC2)C(=O)CSc2nnc(COc3ccccc3)o2)cc1 | inconclusive [activator, partial curve, poor fit] | –
60 | O=C(N/N=C/c1ccccc1)c1c(O)c2ccccc2[nH]c1=O | – | inactive: 10.5%
61 | COc1ccc(CNC(=O)C2CC(c3cc(C(F)(F)F)cc(C(F)(F)F)c3)=NO2)cc1 (stereo not given) | active: 6.51 µM | –
62 | O=C(CSc1nnc(CNC(=O)c2ccco2)o1)c1ccc(Cl)cc1 | – | inactive: -34.4%
63 | CCOC(=O)c1oc2ccccc2c1NC(=O)COc1ccc(F)cc1 | inconclusive [activator, full curve, poor fit] | –
64 | O=C(NCC(=O)N1CCCC(C(F)(F)F)C1)c1ccc2ccccc2c1 (stereo not given) | – | inactive: 7.45%
65 | COc1cc(CNc2nnnn2C)cc(OC)c1OC | – | inactive: 10.2%
66 | CCOc1ccccc1N(CC(=O)Nc1ccc(OC)cc1)S(=O)(=O)c1ccccc1 | inconclusive [activator, partial curve, poor fit] | –
67 | O=S(=O)(c1ccc(F)cc1)N1CCC(N2CCCCCC2)CC1 | – | inactive: 11.1%
68 | CN1CCN(Cc2coc3c(Cl)cc(Cl)cc3c2=O)CC1 | inconclusive [activator, single point] | –
69 | O=C(Nc1ccc(Cl)cc1)c1cc(Br)ccc1OCC(=O)N1CCOCC1 | inconclusive [activator, partial curve, poor fit] | –
70 | CC1CN(CC(O)COC(c2ccc(Cl)cc2)c2ccc(Cl)cc2)CC(C)O1 (stereo not given) | active: 7.31 µM | –
